According to publication PMC3722167:
No constants are given. Whether binding was seen depends on the method and setting. In cells and extracts the contact can be indirect. Some results given as binding are weak or reduced against the parent protein; the word gives no strength.

Chains of the proteins cited; added tags and fusions are not shown.
UniProt Q8WWF6: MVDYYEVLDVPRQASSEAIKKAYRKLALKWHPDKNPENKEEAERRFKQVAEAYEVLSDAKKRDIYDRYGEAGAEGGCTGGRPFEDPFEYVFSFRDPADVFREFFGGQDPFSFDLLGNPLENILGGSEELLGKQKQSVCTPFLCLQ
UniProt P18850: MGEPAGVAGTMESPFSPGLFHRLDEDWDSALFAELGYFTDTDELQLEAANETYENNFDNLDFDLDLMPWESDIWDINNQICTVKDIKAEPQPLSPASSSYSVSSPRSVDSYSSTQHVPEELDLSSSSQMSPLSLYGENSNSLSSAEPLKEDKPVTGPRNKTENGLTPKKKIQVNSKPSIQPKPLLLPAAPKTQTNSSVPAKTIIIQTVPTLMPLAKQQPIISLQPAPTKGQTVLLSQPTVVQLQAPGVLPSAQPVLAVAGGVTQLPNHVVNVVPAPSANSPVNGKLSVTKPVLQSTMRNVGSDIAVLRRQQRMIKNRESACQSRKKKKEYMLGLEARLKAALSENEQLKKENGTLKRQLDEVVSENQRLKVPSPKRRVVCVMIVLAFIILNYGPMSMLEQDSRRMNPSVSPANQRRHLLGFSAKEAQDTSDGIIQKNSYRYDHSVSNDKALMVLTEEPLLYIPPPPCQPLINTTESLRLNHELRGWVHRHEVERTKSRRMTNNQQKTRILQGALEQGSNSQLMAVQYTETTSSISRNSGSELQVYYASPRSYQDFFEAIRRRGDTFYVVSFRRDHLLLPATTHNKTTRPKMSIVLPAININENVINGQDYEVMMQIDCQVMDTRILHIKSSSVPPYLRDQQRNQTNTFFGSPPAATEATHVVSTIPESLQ
UniProt P0DMV8: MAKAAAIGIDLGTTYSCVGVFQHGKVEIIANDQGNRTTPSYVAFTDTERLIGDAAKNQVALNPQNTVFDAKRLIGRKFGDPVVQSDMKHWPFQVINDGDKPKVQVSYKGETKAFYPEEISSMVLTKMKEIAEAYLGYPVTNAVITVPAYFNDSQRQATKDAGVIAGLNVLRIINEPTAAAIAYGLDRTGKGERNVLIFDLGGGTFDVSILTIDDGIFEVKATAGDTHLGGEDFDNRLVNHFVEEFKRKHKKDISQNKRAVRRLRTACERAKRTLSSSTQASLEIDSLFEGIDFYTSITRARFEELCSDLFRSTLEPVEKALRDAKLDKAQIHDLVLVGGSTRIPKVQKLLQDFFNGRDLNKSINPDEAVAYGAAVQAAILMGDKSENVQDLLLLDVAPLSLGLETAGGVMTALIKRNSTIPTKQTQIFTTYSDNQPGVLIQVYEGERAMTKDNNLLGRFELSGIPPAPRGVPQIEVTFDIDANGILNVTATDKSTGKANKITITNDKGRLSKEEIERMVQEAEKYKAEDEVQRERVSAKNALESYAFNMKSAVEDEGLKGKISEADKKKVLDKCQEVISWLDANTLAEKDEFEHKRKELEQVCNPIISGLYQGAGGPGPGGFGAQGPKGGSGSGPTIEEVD

What was measured:
[1] = target: Myc-FLAG-tagged human DNAJB3 (pCMV-DNAJB3) (human) (UniProt Q8WWF6); experiment: co-IP; 500 μg lysate of transfected HEK-293 cells (50 mM Tris-HCl pH 7.4, 150 mM NaCl, 1 mM EDTA, 1% Triton X-100) on anti-FLAG M2 agarose beads overnight at 4°C; four washes; elution with 3xFLAG peptide; Western blot for JNK, IKKβ and HSP-72
[2] = target: FLAG-tagged ATF-6 (pCMV-ATF-6) (UniProt P18850); experiment: as above
[3] = target: endogenous DNAJB3 (human (endogenous in HEK293)) (UniProt Q8WWF6); experiment: co-IP; 500 μg lysate of untransfected HEK293 cells; immunoprecipitation with anti-DNAJB3 or anti-HSP-72 antibody; Western blot
[4] = target: HSP-72 (the inducible HSP-70) (human (endogenous in HEK-293)) (UniProt P0DMV8); experiment: as above

Molecule: HSP-72 (the inducible HSP-70) (from UniProt P0DMV8 1-641)
- binding [1]: binds
- binding [2]: no binding
- binding [3]: binds

Molecule: endogenous DNAJB3 (from UniProt Q8WWF6 1-145)
- binding [4]: binds

B1: inhibitor of κB kinase-β (IKKβ) (protein, UniProt O14920 1-756)
chain: MSWSPSLTTQTCGAWEMKERLGTGGFGNVIRWHNQETGEQIAIKQCRQELSPRNRERWCLEIQIMRRLTHPNVVAARDVPEGMQNLAPNDLPLLAMEYCQGGDLRKYLNQFENCCGLREGAILTLLSDIASALRYLHENRIIHRDLKPENIVLQQGEQRLIHKIIDLGYAKELDQGSLCTSFVGTLQYLAPELLEQQKYTVTVDYWSFGTLAFECITGFRPFLPNWQPVQWHSKVRQKSEVDIVVSEDLNGTVKFSSSLPYPNNLNSVLAERLEKWLQLMLMWHPRQRGTDPTYGPNGCFKALDDILNLKLVHILNMVTGTIHTYPVTEDESLQSLKARIQQDTGIPEEDQELLQEAGLALIPDKPATQCISDGKLNEGHTLDMDLVFLFDNSKITYETQISPRPQPESVSCILQEPKRNLAFFQLRKVWGQVWHSIQTLKEDCNRLQQGQRAAMMNLLRNNSCLSKMKNSMASMSQQLKAKLDFFKTSIQIDLEKYSEQTEFGITSDKLLLAWREMEQAVELCGRENEVKLLVERMMALQTDIVDLQRSPMGRKQGGTLDDLEEQARELYRRLREKPRDQRTEGDSQEMVRLLLQAIQSFEKKVRVIYTQLSKTVVCKQKALELLPKVEEVVSLMNEDEKTVVRLQEKRQKELWNLLKIACSKVRGPVSGSPDSMNASRLSQPGQLMSQPSTASNSLPEPAKKSEELVAEAHNLCTLLENAIQDTVREQDQSFTALDWSWLQTEEEEHSCLEQAS
- binding [1]: binds
- binding [2]: no binding
